{"source": "PubChem BioAssay AID1240", "about": "(Sanford-Burnham Center for Chemical Genomics, 2008)", "note": "Hit rate of the full screen: of about 50,000 compounds, about 800 (1.6%) showed an effect of 50% or more. The list shows a part of the results.", "data": [{"molecular_target": "Bcl-2-like protein 10 (Homo sapiens) (UniProt Q9HD36)", "sequence (Q9HD36 whole entry, looked up)": "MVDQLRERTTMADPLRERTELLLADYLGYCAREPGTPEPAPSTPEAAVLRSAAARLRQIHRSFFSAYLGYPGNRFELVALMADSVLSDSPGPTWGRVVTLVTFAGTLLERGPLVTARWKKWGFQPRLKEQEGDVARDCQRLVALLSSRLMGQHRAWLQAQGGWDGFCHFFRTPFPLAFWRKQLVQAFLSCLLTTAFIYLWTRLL", "assay": "Phenotype converters, Bcl-B/TR3 peptide binding displacement, primary biochemical FP (AID 1240);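 note: 0% = Bcl-B with tracer peptide and DMSO and 100% = tracer peptide lacking Bcl-B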", "details": "GST-Bcl-B / FITC-TR3 peptide fluorescence polarization; stronger effect = higher value; compound at 3.75 mg/L", "units": {"displacement": "%"}, "values": [{"smiles": "COc1cc([N+](=O)[O-])ccc1NC(=O)COc1ccc(C)cc1C", "displacement": 4.4}, {"smiles": "O=C(Nc1ccc(Nc2ccccc2)cc1)c1ccc([N+](=O)[O-])cc1", "displacement": 1.6}, {"smiles": "CN(C)c1ccc(NC(=O)Nc2ccc(Cl)c(Cl)c2)cc1", "displacement": 2.6}, {"smiles": "O=C(CCCNc1ccccc1)N/N=C/c1cccnc1", "displacement": -4.8}, {"smiles": "Cc1cccc(NCC(=O)N/N=C\\c2c(Br)cc(Br)c(O)c2Br)c1", "displacement": 4.7}, {"smiles": "CCOC(=O)c1sc(NC(=O)C2CCCCC2)nc1C", "displacement": -3}, {"smiles": "CCOc1ccc(C(=O)Nc2ccc(N3CCOCC3)cc2)cc1Cl", "displacement": 9.6}, {"smiles": "Oc1ccccc1/C=N/Nc1cc(N2CCOCC2)nc(N2CCOCC2)n1", "displacement": -7.1}, {"smiles": "CCC(C)(c1ccc(C=O)s1)c1ccc(C=O)s1", "displacement": 12.3}, {"smiles": "O=C(Nc1ccccc1C(F)(F)F)c1cncc(Br)c1", "displacement": 14.9}, {"smiles": "CC1=NN(C(=O)OC(C)(C)C)C(O)(C(F)(F)F)C1", "note": "(stereo unspecified)", "displacement": 2.7}, {"smiles": "CCCC(=Nc1cccc([N+](=O)[O-])c1)C1=C(O)CC(C)(C)CC1=O", "displacement": -8.9}, {"smiles": "CC(=O)C1=C(O)C(=O)N(CCN(C)C)C1c1ccc(Cl)cc1", "note": "(stereo unspecified)", "displacement": 1.5}, {"smiles": "O=C(NCc1cccnc1)c1cnn2c(C(F)(F)F)cc(-c3ccc4c(c3)OCO4)nc12", "displacement": 11.3}, {"smiles": "COc1ccc(S(=O)(=O)N(CC(=O)Nc2ccc(Cl)cc2Cl)c2ccc(C)cc2)cc1OC", "displacement": 6}, {"smiles": "O=C(COc1ccccc1)Nc1ccc(NC(=O)COc2ccccc2)cc1", "displacement": 1.4}, {"smiles": "Cc1cccc(NC(=O)c2ccc3c(c2)OCO3)n1", "displacement": 7.9}, {"smiles": "O=C(c1ccccc1)N1CCN(c2cc(N3CCOCC3)c(F)cc2[N+](=O)[O-])CC1", "displacement": -6.5}, {"smiles": "Cn1c(=O)[nH]c(=O)c2ncn(Cc3ccccc3)c21", "displacement": -4.8}, {"smiles": "CCOc1ccc(NC(=S)NC(NC(=O)c2cccc(C)c2)C(Cl)(Cl)Cl)cc1", "note": "(stereo unspecified)", "displacement": -4.9}, {"smiles": "CCCN1CCC(=NNC(=O)c2ccc(Br)o2)CC1", "displacement": -2.1}, {"smiles": "Cc1cccc(NC(=O)CC2Sc3ccc(C(F)(F)F)cc3NC2=O)c1C", "note": "(stereo unspecified)", "displacement": 2.5}, {"smiles": "CC(=O)c1c(C)nc(-c2ccc([N+](=O)[O-])cc2)nc1N", "displacement": -10.3}, {"smiles": "CC(=O)CCc1c(C)c2ccccc2[nH]c1=S", "displacement": -16.6}, {"smiles": "C=CCN1C(=O)/C(=C\\c2cccc(OCC(=O)O)c2)C(=O)NC1=S", "displacement": 18.6}, {"smiles": "O=C(CSc1nccn1Cc1ccccc1)c1ccc([N+](=O)[O-])cc1", "displacement": 2.8}, {"smiles": "Cc1nc(N)sc1C(=O)N/N=C/C=C/c1ccccc1", "displacement": 48.4}, {"smiles": "O=C(NC(=S)Nc1ccc(Cl)cc1Cl)c1ccc(Cl)cc1", "displacement": -8.7}, {"smiles": "CC(C)Nc1ncnc2ccc(Br)cc12", "displacement": 11.9}, {"smiles": "CCCC(=O)N1CCN(c2ccc([N+](=O)[O-])cc2Cl)CC1", "displacement": -2.9}, {"smiles": "C(=N\\n1cnnc1)/c1ccc(OCCOc2ccc(C3CCCCC3)cc2)cc1", "displacement": -7.4}, {"smiles": "COc1ccc(OC)c(N(CC(=O)Nc2ccc(Br)cc2)S(C)(=O)=O)c1", "displacement": 10.7}, {"smiles": "COc1ccc(/C=C2/C(=O)NC(=O)N(c3ccc(C(C)C)cc3)C2=O)c(OC)c1", "displacement": -18.1}, {"smiles": "O=C1c2cccc3cc(Br)cc(c23)C(=O)N1Nc1ccccc1", "displacement": -1.2}, {"smiles": "COc1ccccc1NC(=O)C(=O)NCC(C)C", "displacement": 9.1}, {"smiles": "O=C1c2ccccc2C(=O)N1CCCSc1nnc(-c2cccs2)n1-c1ccccc1", "displacement": 2.4}, {"smiles": "Cc1cc(C)n(-c2cc(-n3nc(C)cc3C)ncn2)n1", "displacement": 3.9}, {"smiles": "COc1ccc(CN=CC2=C(O)CC(c3ccccc3)CC2=O)cc1", "note": "(stereo unspecified)", "displacement": -3}, {"smiles": "c1ccc(CCNc2ccnc3cc4ccccc4cc23)cc1", "displacement": 3.3}, {"smiles": "CC(C)CNC(=O)/C=C/c1ccccc1", "displacement": -4}, {"smiles": "Cc1ccccc1CNC(=O)c1ccc(N(C)S(=O)(=O)c2ccccc2)cc1", "displacement": 3.7}, {"smiles": "COc1ccc(/C(C)=N/OCC(=O)N2CCN(C(c3ccccc3)c3ccccc3)CC2)cc1OC", "displacement": -6.6}, {"smiles": "CCOc1ccc(Nc2nc(Nc3ccc(O)cc3)nc(C)c2[N+](=O)[O-])cc1", "displacement": -4}, {"smiles": "CC(=O)NC1=NC(=O)/C(=C\\c2ccccc2C)S1", "displacement": -6.5}, {"smiles": "CC(C)C1=CC23CCC4C(C)(C(=O)O)CCCC4(C)C2CC1C1C(=O)N(c2ccc(O)cc2)C(=O)C13", "note": "(stereo unspecified)", "displacement": -7.4}, {"smiles": "COc1ccc(C2C3C(=O)N(c4ccc([N+](=O)[O-])cc4)C(=O)C3N3CCCN23)cc1", "note": "(stereo unspecified)", "displacement": 8.1}, {"smiles": "O=C(/C=C/c1ccccc1)NC(=S)Nc1cccnc1", "displacement": 11.6}, {"smiles": "COC(=O)/C(=C\\N(C(C)C)C(C)C)[N+](=O)[O-]", "displacement": 11.1}, {"smiles": "Cc1ccc(C(=O)O)cc1NC(=O)CCCC(=O)O", "displacement": -4.1}, {"smiles": "O=C(Cc1ccccc1)Nc1ccc(Cc2ccncc2)cc1", "displacement": 13.4}, {"smiles": "O=C(CCN1C(=O)S/C(=C/c2ccc(Cl)cc2)C1=O)N1CCOCC1", "displacement": -7}, {"smiles": "CCOc1cc(/C=N/n2cnnc2)ccc1OCCOc1ccc(Br)cc1", "displacement": 19.3}, {"smiles": "Cc1ccccc1NC(=O)C1CC=CCC1C(=O)O", "note": "(stereo unspecified)", "displacement": 11.8}, {"smiles": "CCOc1cc(/C=C2/SC(=S)NC2=O)cc(Br)c1OCc1ccc(F)cc1", "displacement": 3.6}, {"smiles": "CC(=O)Nc1ccc(S(=O)(=O)NCCSc2ccccn2)cc1", "displacement": 2.8}, {"smiles": "CN(Cc1ccccc1)Cc1c(O)ccc2c(-c3ccccc3)cc(=O)oc12", "displacement": -2}, {"smiles": "CCOC(=O)CP(=O)(c1ccc(Cl)cc1)c1ccc(Cl)cc1", "displacement": 1.6}, {"smiles": "O=C(COc1ccc(Cl)cc1Cl)Nc1ccc(Br)c(Cl)c1", "displacement": -5.5}, {"smiles": "O=C(c1cccnc1)N1N=C(c2ccncc2)CC1(O)C(F)(F)F", "note": "(stereo unspecified)", "displacement": -13.4}, {"smiles": "CC1=C(C(=O)OC(C)C)C(c2ccccc2Cl)C2=C(CC(C)(C)CC2=O)N1", "note": "(stereo unspecified)", "displacement": 2.8}, {"smiles": "COC(=O)c1c(NC(=O)C(F)(F)F)sc(/C(C)=C/C#N)c1C", "displacement": 23.1}, {"smiles": "C=CCc1cccc(/C=N/NC(=O)CCC2C(=O)NN=C2C)c1O", "note": "(stereo unspecified)", "displacement": -20.1}, {"smiles": "O=C(CN1C(=O)/C(=C/c2ccccc2F)SC1=S)Nc1ccccc1F", "displacement": 2.1}, {"smiles": "O=C(O)CCC(NC(=O)c1ccc(I)cc1)C(=O)O", "note": "(stereo unspecified)", "displacement": 1.2}, {"smiles": "COc1cc(/C=C2\\SC(=S)NC2=O)ccc1OCC(=O)O", "displacement": 3.8}, {"smiles": "Cn1c(SCC(=O)N/N=C/c2ccccc2O)nc2ccccc21", "displacement": -18}, {"smiles": "CCOC(=O)C1CCN(C2CC(=O)N(c3ccc(C)cc3)C2=O)CC1", "note": "(stereo unspecified)", "displacement": 7.6}, {"smiles": "O=C(Nc1ccc(F)c([N+](=O)[O-])c1)c1cc(Br)ccc1Cl", "displacement": 6.5}, {"smiles": "Cc1ccc(NC(=O)c2cccc(C(=O)Nc3ccc(C)c(C)c3)c2)cc1C", "displacement": -0.1}, {"smiles": "COc1ccc(/C=C/C(=O)Nc2cc(S(N)(=O)=O)ccc2C)cc1", "displacement": -0.9}, {"smiles": "O=C(Nc1cccc(NC(=O)c2ccccc2Cl)c1)c1ccc(-c2ccc(Br)cc2)o1", "displacement": 57.3}]}]}
